The supplement of paper PMC4967469
The IC50 comes from the fitted curve, where viability falls to half of the control; a limit (>, <) means that the fit lies beyond the doses tested. AUC, from the same fit, is the share of area under the viability curve across the 256-fold dose range: 1 means no effect, lower means more sensitive. For part of these data: A top dose marked as inferred is not printed in the source and was worked back from the curve model.

Key:
Assay in all cases: Viability of human cancer cell lines after 72 h of drug (GDSC screen)
[1] = compound: CC(=O)Nc1nc(C)c(-c2ccc(Cl)c(S(=O)(=O)NCCO)c2)s1 [PIK-93]; details: top dose 20 µM
Method: (§1)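 Human cancer cell lines in 384-well plates, medium with 10% serum, drug for 72 h over a 256-fold dose range (nine 2-fold or five 4-fold steps up to the top dose). Adherent lines were fixed and stained with the nucleic acid dye Syto60, suspension lines read with resazurin; signal relative to control wells, capped at 0 and 100%. One two-parameter sigmoid per drug and line, fitted in a mixed model over all curves with the slope shared within a line.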

[2] = compound: CC1(C)CCC(c2ccc(Cl)cc2)=C(CN2CCN(c3ccc(C(=O)NS(=O)(=O)c4ccc(N[C@H](CCN5CCOCC5)CSc5ccccc5)c(S(=O)(=O)C(F)(F)F)c4)cc3)CC2)C1 [ABT-263]; details: top dose 2 µM; top dose inferred
Method: as §1

[3] = compound: COc1cc(/C=C/C(=O)N2CCC=CC2=O)cc(OC)c1OC [piperlongumine]; details: top dose 10 µM
Method: as §1

[4] = compound: COc1cc2ncn(-c3cc(OCc4ccccc4C(F)(F)F)c(C(N)=O)s3)c2cc1OC [GW843682X]; details: top dose 0.256 µM
Method: as §1

[5] = compound: Cn1cc(/C=C2\C(=O)Nc3cccnc32)c2ccccc21 [GW 441756]; details: top dose 2 µM; top dose inferred
Method: as §1

[6] = compound: O=C(/C=C/c1ccccc1)NC(NC(=S)Nc1cccc2cccnc12)C(Cl)(Cl)Cl [Salubrinal]; details: top dose 16 µM; top dose inferred
Method: as §1

Row | Cell Line | AUC [1] | IC50 [1] [nM] | AUC [2] | IC50 [2] [nM] | AUC [3] | IC50 [3] [nM] | AUC [4] | IC50 [4] [nM] | AUC [5] | IC50 [5] [nM] | AUC [6] | IC50 [6] [nM]
1 | MONO-MAC-6 (acute myeloid leukaemia, suspension) | 0.375 | 555 | 0.846 | 1590 | 0.68 | 2060 | 0.573 | 25.6 | 0.862 | 1890 | 0.841 | 12100
2 | MPP-89 (mesothelioma, adherent) | 0.747 | 8100 | 0.863 | > 2000 | 0.774 | 5190 | 0.797 | 165 | 0.962 | > 2000 | 0.865 | > 16000
3 | MRK-nu-1 (breast, suspension) | 0.869 | 15900 | 0.981 | > 2000 | 0.793 | 4160 | 0.48 | 14.1 | 0.982 | > 2000 | 0.825 | 8600
4 | MS-1 (small cell lung carcinoma, suspension) | 0.827 | 10500 | 0.665 | 341 | 0.834 | 5560 | 0.492 | 15.2 | 0.989 | > 2000 | 0.843 | 9590
5 | MSTO-211H (mesothelioma, adherent) | 0.98 | > 20000 | 0.991 | > 2000 | 0.812 | 4730 | 0.933 | > 256 | 0.99 | > 2000 | 0.99 | > 16000
6 | MV-4-11 (leukaemia, suspension) | 0.626 | 2600 | 0.123 | 11.1 | 0.598 | 1100 | 0.578 | 25.1 | 0.62 | 250 | 0.775 | 5220
7 | MZ1-PC (pancreas, adherent) | 0.497 | 1220 | 0.975 | > 2000 | 0.82 | 7630 | 0.401 | 7.98 | 0.963 | > 2000 | 0.958 | > 16000
8 | MZ2-MEL (melanoma, adherent) | 0.747 | 7340 | 0.867 | > 2000 | 0.736 | 3370 | 0.78 | 124 | 0.809 | 1260 | 0.874 | > 16000
9 | Mo-T (hairy cell leukaemia, suspension) | 0.824 | 12200 | 0.568 | 193 | 0.688 | 2130 | 0.987 | > 256 | 0.963 | > 2000 | 0.984 | > 16000
10 | NALM-6 (B-cell leukaemia, suspension) | 0.156 | 142 | 0.515 | 136 | 0.835 | 5130 | 0.501 | 16.1 | 0.991 | > 2000 | 0.864 | 10400
11 | NAMALWA (Burkitt lymphoma, suspension) | 0.578 | 1970 | 0.99 | > 2000 | 0.79 | 3710 | 0.401 | 8.95 | 0.991 | > 2000 | 0.939 | > 16000
12 | NB1 (neuroblastoma, semi-adherent) | 0.833 | 14800 | 0.964 | > 2000 | 0.785 | 4740 | 0.615 | 34.4 | 0.951 | > 2000 | 0.884 | > 16000
13 | NB5 (neuroblastoma, adherent) | 0.876 | > 20000 | 0.934 | > 2000 | 0.798 | 4850 | 0.649 | 41.6 | 0.986 | > 2000 | 0.979 | > 16000
14 | NB6 (neuroblastoma, adherent) | 0.904 | > 20000 | 0.911 | > 2000 | 0.982 | > 10000 | 0.751 | 102 | 0.967 | > 2000 | 0.984 | > 16000
15 | NB10 (neuroblastoma, adherent) | 0.888 | > 20000 | 0.986 | > 2000 | 0.764 | 3540 | 0.952 | > 256 | 0.851 | 1470 | 0.97 | > 16000
16 | NB13 (neuroblastoma, adherent) | 0.739 | 5450 | 0.442 | 88.7 | 0.809 | 4490 | 0.487 | 14.8 | 0.99 | > 2000 | 0.87 | 12100
17 | NB14 (neuroblastoma, adherent) | 0.646 | 3080 | 0.555 | 175 | 0.813 | 5010 | 0.977 | > 256 | 0.908 | > 2000 | 0.987 | > 16000
18 | NB(TU)1-10 (neuroblastoma, adherent) | 0.73 | 5060 | 0.871 | 1460 | 0.993 | > 10000 | 0.782 | 91.8 | 0.993 | > 2000 | 0.905 | > 16000
19 | NB-4 (acute myeloid leukaemia, suspension) | 0.21 | 218 | 0.857 | 1180 | 0.658 | 1560 | 0.237 | 3.32 | 0.991 | > 2000 | 0.843 | 8470
20 | NCI-H23 (lung adenocarcinoma, adherent) | 0.951 | > 20000 | 0.948 | > 2000 | 0.683 | 2020 | 0.963 | > 256 | 0.897 | > 2000 | 0.983 | > 16000
21 | NCI-H69 (small cell lung carcinoma, suspension) | 0.967 | > 20000 | 0.578 | 209 | 0.827 | 7100 | 0.714 | 69.5 | 0.985 | > 2000 | 0.901 | > 16000

Row | Cell Line | AUC [1] | IC50 [1] [nM] | AUC [2] | IC50 [2] [nM] | AUC [3] | IC50 [3] [nM] | AUC [4] | IC50 [4] [nM] | AUC [5] | IC50 [5] [nM] | AUC [6] | IC50 [6] [nM]
22 | NCI-H82 (small cell lung carcinoma, suspension) | 0.804 | 9370 | 0.918 | > 2000 | 0.934 | > 10000 | 0.465 | 12.9 | 0.988 | > 2000 | 0.932 | > 16000
23 | NCI-H187 (small cell lung carcinoma, suspension) | 0.734 | 6220 | 0.352 | 46.8 | 0.833 | 7230 | 0.647 | 42.4 | 0.988 | > 2000 | 0.924 | > 16000
24 | NCI-H209 (small cell lung carcinoma, suspension) | 0.662 | 3660 | 0.409 | 69 | 0.872 | > 10000 | 0.8 | 134 | 0.969 | > 2000 | 0.945 | > 16000
25 | NCI-H211 (small cell lung carcinoma, adherent) | 0.603 | 2370 | 0.645 | 310 | 0.823 | 5670 | 0.462 | 12.6 | 0.979 | > 2000 | 0.907 | > 16000
26 | NCI-H226 (lung squamous cell carcinoma, adherent) | 0.812 | 11300 | 0.987 | > 2000 | 0.865 | 9540 | 0.971 | > 256 | 0.916 | > 2000 | 0.971 | > 16000
27 | NCI-H322M (lung adenocarcinoma, suspension) | 0.88 | > 20000 | 0.972 | > 2000 | 0.951 | > 10000 | 0.977 | > 256 | 0.986 | > 2000 | 0.976 | > 16000
28 | NCI-H345 (small cell lung carcinoma, suspension) | 0.986 | > 20000 | 0.641 | 314 | 0.956 | > 10000 | 0.848 | 206 | 0.99 | > 2000 | 0.972 | > 16000
29 | NCI-H524 (small cell lung carcinoma, suspension) | 0.897 | > 20000 | 0.519 | 140 | 0.751 | 2980 | 0.567 | 23.9 | 0.991 | > 2000 | 0.976 | > 16000
30 | NCI-H526 (small cell lung carcinoma, suspension) | 0.772 | 7390 | 0.706 | 460 | 0.919 | > 10000 | 0.581 | 26.5 | 0.99 | > 2000 | 0.986 | > 16000
31 | NCI-H720 (lung carcinoid, suspension) | 0.946 | > 20000 | 0.453 | 94 | 0.876 | 8490 | 0.916 | > 256 | 0.965 | > 2000 | 0.789 | 6410
32 | NCI-H747 (large intestine, adherent) | 0.757 | 8290 | 0.982 | > 2000 | 0.832 | 8430 | 0.689 | 61.6 | 0.982 | > 2000 | 0.966 | > 16000
33 | NCI-H847 (small cell lung carcinoma, adherent) | 0.551 | 1670 | 0.347 | 51.5 | 0.812 | 4150 | 0.472 | 13.6 | 0.922 | > 2000 | 0.975 | > 16000
34 | NCI-H1092 (small cell lung carcinoma, suspension) | 0.93 | > 20000 | 0.653 | 334 | 0.827 | 6180 | 0.866 | 231 | 0.99 | > 2000 | 0.97 | > 16000
35 | NCI-H1155 (large cell lung carcinoma, suspension) | 0.937 | > 20000 | 0.515 | 136 | 0.84 | 5200 | 0.699 | 51.6 | 0.987 | > 2000 | 0.962 | > 16000
36 | NCI-H1304 (small cell lung carcinoma, suspension) | 0.886 | > 20000 | 0.666 | 377 | 0.879 | > 10000 | 0.653 | 44 | 0.966 | > 2000 | 0.988 | > 16000
37 | NCI-H1395 (lung adenocarcinoma, adherent) | 0.889 | > 20000 | 0.981 | > 2000 | 0.929 | > 10000 | 0.842 | > 256 | 0.958 | > 2000 | 0.841 | > 16000
38 | NCI-H1417 (small cell lung carcinoma, suspension) | 0.82 | 14500 | 0.512 | 136 | 0.69 | 2390 | 0.852 | > 256 | 0.974 | > 2000 | 0.977 | > 16000
39 | NCI-H1436 (small cell lung carcinoma, suspension) | 0.885 | > 20000 | 0.912 | > 2000 | 0.771 | 4380 | 0.801 | 146 | 0.981 | > 2000 | 0.894 | > 16000
40 | NCI-H1648 (lung adenocarcinoma, adherent) | 0.696 | 4630 | 0.852 | 1700 | 0.979 | > 10000 | 0.405 | 8.64 | 0.959 | > 2000 | 0.931 | > 16000
41 | NCI-H1694 (small cell lung carcinoma, suspension) | 0.868 | 18000 | 0.82 | 1140 | 0.831 | 6270 | 0.673 | 48.4 | 0.989 | > 2000 | 0.916 | > 16000
